Laboratory results reported in PubChem BioAssay AID1768 (National Center for Advancing Translational Sciences (NCATS), 2009).
Out of some 270,000 compounds screened, about 620 (0.23%) were called active. The inconclusive results got no clear call from the source; some entries with a clear call stand among them for comparison. Calls follow the shape of the dose curve; as a rule, active = well fitted inhibition curve with a large enough effect in the polarisation, with a control signal flat (not every such curve was filed as active); inconclusive = small, poorly fitted or top-dose-only effect, or effect the other way, or a change in a side signal; inactive = no such curve, though single readings can be large or run the other way; the % refers to the polarisation. Where the call is inconclusive, the potency comes from a doubtful curve fit. “Side channel” marks fits to a control or component signal instead of the main read-out.

Each compound was assayed against Menin (Homo sapiens) (UniProt O00255) (assay: qHTS Assay for Inhibitors Targeting the Menin-MLL Interaction in MLL Related Leukemias: Competition With Texas Red Labeled MLL-derived Mutant Peptide). Settings: fluorescence polarization; FP activity change, negative = inhibition: at 61.6 µM (top of the series).
For FP activity change, negative = inhibition in this document: % of control where 0% means no effect.
Potency is read from the fitted curve at half-maximal effect; tags tell the direction and shape of the fitted curve or compound fluorescence and quenching.

Chain of UniProt O00255 (O00255 whole entry, looked up): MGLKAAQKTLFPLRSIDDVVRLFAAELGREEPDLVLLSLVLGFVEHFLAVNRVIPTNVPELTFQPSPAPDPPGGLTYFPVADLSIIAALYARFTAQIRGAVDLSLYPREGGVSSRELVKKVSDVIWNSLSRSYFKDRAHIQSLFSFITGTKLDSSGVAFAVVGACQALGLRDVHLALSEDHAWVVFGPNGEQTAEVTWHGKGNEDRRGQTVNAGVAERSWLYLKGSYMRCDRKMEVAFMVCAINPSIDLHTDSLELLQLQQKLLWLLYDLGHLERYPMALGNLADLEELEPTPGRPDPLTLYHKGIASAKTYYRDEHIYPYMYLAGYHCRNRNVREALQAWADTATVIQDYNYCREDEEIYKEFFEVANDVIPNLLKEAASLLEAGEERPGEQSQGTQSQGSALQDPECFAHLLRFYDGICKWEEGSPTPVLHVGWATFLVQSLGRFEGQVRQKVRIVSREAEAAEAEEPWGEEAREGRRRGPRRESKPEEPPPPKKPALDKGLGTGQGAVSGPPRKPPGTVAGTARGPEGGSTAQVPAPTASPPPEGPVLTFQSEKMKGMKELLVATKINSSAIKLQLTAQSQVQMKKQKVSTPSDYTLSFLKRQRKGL

Potency, inconclusive:
Cc1ccc(-n2cc(CNCCCn3ccnc3C)c(-c3ccc(F)cc3)n2)cc1 28.2 µM [fluorescent, side channel, single point]
COc1ccc(NC(=O)c2c(SC)nsc2SC)cc1 39.8 µM [fluorescent, side channel, single point]
CCOC(=O)c1c(C)oc2ccc(NS(=O)(=O)c3cccs3)cc12 31.6 µM [quencher, side channel, partial curve]
CCOc1cc2[nH]c(=S)n(CCCN3CCCC3=O)c(=O)c2cc1OCC 15.8 µM [inhibitor, partial curve]
CCCCN(CCCC)CCCNC(=O)CN1C(=O)COc2ccc(S(=O)(=O)N3CCC(C)CC3)cc21 12.6 µM [inhibitor, partial curve]
CSc1nn(CCc2ccncc2)c(=S)s1 3.55 µM [inhibitor, partial curve]
Nc1[nH]n2c(=O)cc(-c3ccccc3)nc2c1N=Nc1ccccc1 15.8 µM [quencher, side channel, partial curve]
COc1cc(C(=O)N/N=C/c2ccc3c(c2)c2ccccc2n3C)ccc1O 8.91 µM [quencher, side channel, partial curve]
COc1cccc(/C=N/Nc2nc(Nc3ccccc3)nc(-n3nc(C)cc3C)n2)c1O 8.91 µM [quencher, side channel, full curve]
COc1cc(NC(=O)c2sc(C)nc2C)c(OC)cc1NC(=O)c1ccccc1 7.08 µM [inhibitor, partial curve]
COc1cn(-c2ccccc2)nc1C(=O)NCc1ccc(C)cc1 25.1 µM [inhibitor, single point]
CC(=O)Nc1ccc(N(C(=O)c2cnccn2)C(C(=O)NC2CCCCC2)c2ccc(O)cc2)cc1 (configuration not stated) 2.24 µM [inhibitor, partial curve]
CC1=NN(c2ccc(Cl)c(C(=O)O)c2)C(=O)/C1=C\c1ccc(-c2ccc(C(=O)O)cc2)o1 17.8 µM [quencher, side channel, partial curve]
Cc1ccc(S(=O)(=O)NCc2ccc(N3CCN(C(=O)OC(C)(C)C)CC3)cc2)cc1 20 µM [fluorescent, side channel, partial curve]
Cc1cc(C)c(NC(=S)NCCCSC2CCCCC2)c(C)c1 14.1 µM [fluorescent, side channel, partial curve]
Clc1ccc(OCCSc2ncccn2)c2ccccc12 8.91 µM [quencher, side channel, partial curve]
COC(=O)c1ccc(OCCCCN2CC(C)OC(C)C2)cc1 (configuration not stated) 39.8 µM [inhibitor, single point]
Cc1cc(NC(=O)CCC(=O)N(c2ccccc2)C(C(=O)NC2CCCC2)c2ccccc2C)no1 (configuration not stated) 2 µM [inhibitor, full curve, poor fit]
O=C(Nc1ccc(F)c([N+](=O)[O-])c1)c1ccc2c(c1)OCCO2 25.1 µM [quencher, side channel, partial curve]
CN(C)S(=O)(=O)c1cccc(NC(=O)c2ccc(Sc3nncn3C)c([N+](=O)[O-])c2)c1 8.91 µM [quencher, side channel, partial curve]
C=CC(=O)N1C/C=C\C(c2ccc(OC)cc2)N(Cc2ccc(F)cc2)C(=O)C1 (configuration not stated) 8.91 µM [quencher, side channel, partial curve]
Oc1ccccc1/C=N/n1c(COc2ccccc2)n[nH]c1=S 31.6 µM [quencher, side channel, single point]
O=C(Oc1cc2oc(=O)c3c(c2cc1Cl)CCCC3)c1cccs1 25.1 µM [fluorescent, side channel, single point]
O=C(Nc1ccccc1Cc1ccccc1)C1CC(=O)N(c2ccc3c(c2)OCCO3)C1 (configuration not stated) 28.2 µM [fluorescent, side channel, single point]
Cc1ccc(S(=O)(=O)CCN2CCC(O)(c3ccccc3)CC2)cc1 39.8 µM [inhibitor, single point]
O=C(Nc1nc2cc3c(cc2s1)OCCO3)c1cccc(N2C(=O)CCC2=O)c1 20 µM [quencher, side channel, partial curve]
CCn1ccnc1CN1CCc2c([nH]c3ccccc23)C1C(C)(C)C (configuration not stated) 3.16 µM [fluorescent, side channel, partial curve]
CCOC(=O)NC(=O)CSc1nc(-c2ccc(C)c(C)c2)cn1-c1ccccc1 11.2 µM [fluorescent, side channel, partial curve]
C/C(N)=C(/C#N)C(=O)COC(=O)Cc1coc2ccc3ccccc3c12 39.8 µM [quencher, side channel, single point]
CCn1cc(C(=O)NCCCN2CCCCCC2)c(=O)c2cc(S(=O)(=O)N3CCc4ccccc4C3)ccc21 11.2 µM [fluorescent, side channel, partial curve]

FP activity change, negative = inhibition, inactive:
CCS(=O)(=O)N1CCC(C(=O)NC2CCCCCCC2)CC1 17.8%
COC(=O)c1ccccc1NC(=O)/C=C/c1ccco1 15%
CCOc1ccc(-n2c(-c3ccc(OC)cc3)c[n+]3c2CCCCC3)cc1 -13.6%
C=CC1=C2C=C(C3CC3)N(Cc3ccco3)C=C2C(=O)C(C)(OC(=O)c2ccco2)C1=O (configuration not stated) 2.39% [at 11.7 µM]
CC(=O)Nc1ccc(S(=O)(=O)NC(CC(=O)N(C)Cc2ccccc2)C(C)C)cc1 (configuration not stated) -5.33%
Cc1cc(S(=O)(=O)N2CCOCC2)ccc1OCC(=O)Nc1ccc(F)cc1 1.22%
Cc1ccc(-n2sc3ccccc3c2=O)cc1 14%
